# Among all 340,000 compounds or so, about 12,000 (3.5%) were called active. The shares of active, inactive and inconclusive entries below differ from those in the screen. Calls come from the whole dose curve; as a rule, active = well fitted inhibition curve with a large enough effect; inconclusive = small, poorly fitted or top-dose-only effect, or another doubt; inactive = no such curve, though single readings can be large or run the other way. No potency is given beside an inconclusive call; the fits are too rough.
# Assay: qHTS Assay for Inhibitors of Hepatitis C Virus (HCV)
# Details: Huh7.5.1 HCVcc-Cre (HCVcc is cell-culture hepatitis C virus) infection, luciferase reporter, 44 h; series mostly up to 41.8 µM
# How it was run: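 Whole-lifecycle infectious HCVcc-Cre system; cells 1,000/well, compound then virus (~0.5 moi) added 4 h after plating, 44 h culture. Luciferase read 15 sec following 15 min substrate incubation, room temp.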
# Potency is the fitted concentration of half-maximal effect; tags give direction and shape of the fitted curve.
row,Structure (SMILES),Potency
1,Cc1cc(Cl)cc(Cl)c1OCCOCCN(C)C,"inconclusive [inhibitor, partial curve, poor fit]"
2,CCS(=O)c1ccccc1C(=O)OCC(=O)Nc1ccc2ccccc2c1 (stereo not drawn),"inconclusive [inhibitor, single point]"
3,Clc1ccc2c(NCc3ccccn3)ccnc2c1,"inconclusive [inhibitor, partial curve, poor fit]"
4,Cc1cc(C)n2nc(-c3cnn(C)c3C(F)(F)F)c(Cl)c2n1,"inconclusive [inhibitor, partial curve]"
5,CN(C)S(=O)(=O)Oc1cccc(C(=O)Nc2ccc(Cl)cc2)c1,active: 10 µM
6,CCCn1c(=N)n(CC(=O)c2ccc(Cl)c(Cl)c2)c2ccccc21,active: 10 µM
7,Cc1ccccc1C1=NC(C(F)(F)F)(C(F)(F)F)c2c(n(C)c(=O)n(C)c2=O)N1,"inconclusive [inhibitor, single point]"
8,Cc1ccc(C)c(NC2=NS(=O)(=O)c3ccccc32)c1,inactive
9,COc1ccc(/C=N/NC(=O)c2nnn(-c3nonc3N)c2-c2cccc(OC)c2)cc1,inactive
10,Cc1ccc2nc(-c3ccc(S(=O)(=O)N4CCCCC4)cc3)cn2c1,"inconclusive [inhibitor, single point]"
11,CCC1=C(OC(=O)N(CC)CC)N2C(=O)OC(=NCCc3c[nH]c4ccccc34)[C@]2(Cc2ccccc2)[C@H]2C1=CC[C@H]1C(=O)N(CC(=O)OC)C(=O)[C@H]12,"inconclusive [inhibitor, single point]"
12,O=c1c2ccccc2nc(-c2ccco2)n1-c1nccs1,"inconclusive [inhibitor, partial curve]"
13,COc1ccc(/C=C2\SC(=S)N(C(C)C(=O)NC3C=CS(=O)(=O)C3)C2=O)cc1 (stereo not drawn),"inconclusive [inhibitor, partial curve]"
14,NC(=O)NC(c1ccc(Cl)cc1)c1ccccc1Cl (stereo not drawn),inactive
15,O=C(CCS(=O)(=O)c1ccccc1)N(CCCN1CCOCC1)c1nc2ccccc2s1,"inconclusive [inhibitor, single point]"
16,COc1cccc(NC(=O)CN(C)C(=O)c2ccc(NS(=O)(=O)c3ccc(F)cc3)cc2)c1,inactive
17,Cc1nc2ccc(NC(=S)N3CCN(c4ccccn4)CC3)cc2nc1C,inactive
18,CCOc1ccc(C(=O)Nc2cccc3ncccc23)cc1Br,"inconclusive [inhibitor, partial curve]"
19,CNC(=O)Nc1cccc(C(F)(F)F)c1,inactive
20,CC(=O)Nc1nc(C)c(C(C)=O)s1,inactive
21,CCOC(=O)c1c(C)n(C)c2ccc(OCC(O)CN3CCC(C)CC3)cc12 (stereo not drawn),"inconclusive [inhibitor, partial curve]"
22,COc1ccc(Cl)cc1C(=O)Nc1ccc(NC(C)=O)cc1,"inconclusive [inhibitor, partial curve]"
23,COCC(=O)Nc1cc([N+](=O)[O-])ccc1OC,inactive
24,CCN1CCN(C(=O)c2cc3c(s2)-c2c(C)cccc2OC3)CC1,"inconclusive [inhibitor, single point]"

row,Structure (SMILES),Potency
1,Cc1cccc2[nH]c(CN(C)Cc3nc(CC4CC4)no3)nc12,inactive
2,FC(F)(F)c1cnc(C(c2ccccc2)c2ncn[nH]2)c(Cl)c1 (stereo not drawn),inactive
3,Fc1ccc(-c2cnn3c(-c4cccs4)ccnc23)cc1,"inconclusive [inhibitor, single point]"
4,c1ccc(Cc2noc(CN3CCN(C4CCc5ccccc5C4)CC3)n2)cc1 (stereo not drawn),"inconclusive [inhibitor, single point]"
5,COc1ccc(OCc2nnc(SCC(=O)N(C)Cc3ccccc3)n2N)cc1,"inconclusive [inhibitor, partial curve, poor fit]"
6,CCc1ccc(CNC(=O)CCc2cn(C)c3ccccc23)cc1,inactive
7,CCOC(=O)C(=Nc1ccc(Cl)cc1)NO,inactive
8,CC(C(=O)Nc1ccc2c(c1)OCO2)N1CCC(N2CCCCC2)CC1 (stereo not drawn),inactive
9,Cc1cccc(NC(=O)COc2cccc3c2CCN(C)C3=O)c1,"inconclusive [inhibitor, partial curve]"
10,COc1ccc(/C=C2\SC(=N)N(c3nccs3)C2=O)cc1OC,"inconclusive [inhibitor, single point]"
11,CN(C)S(=O)(=O)c1cccc(C(=O)NC2CCSc3ccccc32)c1 (stereo not drawn),inactive
12,CCCCN(C(=O)CCC(=O)Nc1cc(C)on1)C(C(=O)NC1CCCC1)c1ccccc1OCC (stereo not drawn),inactive
13,Cc1ccc(S(=O)(=O)NCCCCCC(=O)Nc2nccs2)cc1,inactive
14,Cc1ccc(SCc2cn3cc(Cl)ccc3n2)cc1,inactive
15,O=C(COC(=O)C1(c2ccc(F)cc2)CCCC1)N1CCc2ccccc21,"inconclusive [inhibitor, partial curve]"
16,O=C(COc1ccc2c(-c3ccccc3)cc(=O)oc2c1)NCCCn1ccnc1,"inconclusive [inhibitor, partial curve, poor fit]"
17,Cc1cc(C)c(OCC(=O)Nc2ccc(NC(=O)c3ccco3)cc2)c([N+](=O)[O-])c1,inactive
18,N#Cc1ccccc1Cn1cc(C(=O)c2ccco2)c2ccccc21,"inconclusive [inhibitor, full curve, poor fit]"
19,CCOC(=O)c1ccc(NC(=O)COc2ccc(S(=O)(=O)N3CCCC3)cc2)cc1,"inconclusive [inhibitor, partial curve]"
20,S=C(Nc1ccc(Oc2ccccc2)cc1)N1CCOCC1,inactive
21,Cc1ccc(N2CCN(C3=NC(=O)/C(=C\c4cn[nH]c4-c4ccccc4)S3)CC2)cc1,"inconclusive [inhibitor, single point]"
22,CC(=O)NC(Cc1ccccc1)C(=O)NC1CCN(C(=O)c2ccc([N+](=O)[O-])cc2)CC1 (stereo not drawn),inactive
23,CCC1=Nc2cc(C(=O)NCCN3CCOCC3)ccc2Sc2ccc(C)cc21,"inconclusive [inhibitor, single point]"
24,Cc1ccccc1C(=O)N1CCN(C(c2ccccc2)c2ccccc2)CC1,"inconclusive [inhibitor, single point]"
